# Source: the antibiotic and cytotoxicity screens of Wong et al. (2023)
# Some of the results follow.
# Test system: HepG2
# Assay: cytotoxicity call (relative viability < 0.9)
# Conditions: 10 µM
row,Compound,cytotoxicity call
1,C[C@@H]1CN([C@@H](C)CO)C(=O)c2cc(NC(=O)CCN3CCOCC3)ccc2O[C@H]1CN(C)C(=O)NC1CCCCC1,inactive
2,Cc1noc(C)c1NC(=O)N(C)C[C@H]1Oc2ccc(NS(=O)(=O)c3ccccc3)cc2CC(=O)N([C@@H](C)CO)C[C@@H]1C,inactive
3,C[C@@H]1CN([C@@H](C)CO)C(=O)c2cccc(NC(=O)c3ccncc3)c2O[C@H]1CN(C)Cc1ccncc1,inactive
4,O=C(Cc1ccncc1)NCC[C@H]1CC[C@H](NC(=O)C2CCOCC2)[C@H](CO)O1,inactive
5,C[C@H]1COC(=O)[C@@H](CC(=O)OC(C)(C)C)CC=CC[C@@H](CC(=O)N[C@@H](CO)Cc2ccccc2)C(=O)N1,inactive
6,COC(=O)c1cncn1C,inactive
7,CCC(CC)C(=O)N[C@@H]1CC(=O)N(C)C1,inactive
8,C[C@H](CO)N1C[C@H](C)[C@H](CN(C)C(=O)c2ccccc2)OCCCC[C@H](C)Oc2ccc(NS(=O)(=O)c3ccccc3)cc2C1=O,inactive
9,NC(=S)c1cnc(-c2ccncc2)nc1N,inactive
10,COc1ccc(NC(=O)O[C@H]2[C@H](OC(=O)Nc3ccccc3-c3ccccc3)[C@@H](OC(=O)Nc3ccccc3-c3ccccc3)[C@@H](OC)O[C@@H]2COC(=O)NCCCCCC(=O)NO)cc1,inactive
11,COc1ccc(NC(=O)Nc2ccc3c(c2)C(=O)N([C@H](C)CO)C[C@H](C)[C@@H](CN(C)C(=O)Cc2ccccc2)OCCCC[C@@H](C)O3)cc1,inactive
12,CC(C)c1onc(-c2c(Cl)cccc2Cl)c1COc1ccc(/C=C/c2cccc(C(=O)O)c2)c(Cl)c1,inactive
13,CN(C)CC[C@H](CSc1ccccc1)Nc1ccc(S(=O)(=O)NC(=O)c2ccc(N3CCN(Cc4ccccc4-c4ccc(Cl)cc4)CC3)cc2)cc1[N+](=O)[O-],inactive
14,COc1ccc(S(=O)(=O)N(C)C[C@@H]2Oc3ccc(NC(=O)Cc4ccccc4)cc3CC(=O)N([C@H](C)CO)C[C@@H]2C)cc1,active
15,CC(C)NC(=O)N(C)C[C@H]1Oc2c(NC(=O)C3CCOCC3)cccc2C(=O)N([C@H](C)CO)C[C@H]1C,inactive
16,C[C@H]1CCCCO[C@@H](CN(C)Cc2ccncc2)[C@@H](C)CN([C@@H](C)CO)C(=O)c2cc(NS(C)(=O)=O)ccc2O1,inactive
17,O=C(C[C@H]1CC[C@@H](NC(=O)C2CC2)[C@H](CO)O1)NCCCN1CCOCC1,inactive
18,C[C@H]1CN([C@@H](C)CO)C(=O)c2ccccc2-c2ccccc2CO[C@@H]1CN(C)S(=O)(=O)c1cn(C)cn1,inactive
19,Cc1noc(C)c1NC(=O)Nc1ccc2c(c1)CC(=O)N([C@H](C)CO)C[C@H](C)[C@@H](CN(C)C(=O)Nc1cccc3ccccc13)O2,inactive
20,Cc1noc(C)c1S(=O)(=O)N(C)C[C@H]1Oc2ccc(NS(=O)(=O)c3ccc(Cl)cc3)cc2CC(=O)N([C@H](C)CO)C[C@@H]1C,inactive
21,Cc1ccc(S(=O)(=O)N(C)C[C@H]2Oc3ccc(NS(=O)(=O)c4c(C)noc4C)cc3C(=O)N([C@H](C)CO)C[C@@H]2C)cc1,inactive

# Test system: S. aureus RN4220
# Assay: growth inhibition call (relative growth <= 0.2)
# Conditions: 50 µM
row,Compound,growth inhibition call
1,C[C@H](CO)N1C[C@H](C)[C@@H](CN(C)S(C)(=O)=O)OCCCC[C@H](C)Oc2ccc(NS(=O)(=O)c3cn(C)cn3)cc2C1=O,inactive
2,COc1ccc(CN(C)C[C@@H]2Oc3c(NC(=O)c4cc(C)nn4C)cccc3C(=O)N([C@H](C)CO)C[C@H]2C)cc1,inactive
3,Cl.c1ccc(CC2=NCCN2)cc1,inactive
4,Cc1ccc(S(=O)(=O)N[C@@H]2CC[C@@H](CC(=O)N3CCC(Cc4ccccc4)CC3)O[C@H]2CO)cc1,inactive
5,C[C@@H]1CN([C@H](C)CO)C(=O)c2cc(N(C)C)ccc2O[C@@H]1CN(C)S(C)(=O)=O,inactive
6,CC(C)(C)c1cc(CCC(=O)OCC(COC(=O)CCc2cc(C(C)(C)C)c(O)c(C(C)(C)C)c2)(COC(=O)CCc2cc(C(C)(C)C)c(O)c(C(C)(C)C)c2)COC(=O)CCc2cc(C(C)(C)C)c(O)c(C(C)(C)C)c2)cc(C(C)(C)C)c1O,inactive
7,CC(C)NC(=O)Nc1cccc2c1O[C@@H](CN(C)Cc1ccc(Oc3ccccc3)cc1)[C@@H](C)CN([C@H](C)CO)C2=O,inactive
8,Cc1cc(C)n2nc(CCCO)nc2n1,inactive
9,COc1ccc(S(=O)(=O)N(C)C[C@@H]2OCCCC[C@@H](C)Oc3ccc(NS(=O)(=O)c4ccc(Cl)cc4)cc3C(=O)N([C@@H](C)CO)C[C@H]2C)cc1,inactive
10,COc1ccc(S(=O)(=O)N(C)C[C@@H]2Oc3ncc(-c4ccccc4)cc3C(=O)N([C@H](C)CO)C[C@@H]2C)cc1,inactive
11,C[C@H]1CN([C@@H](C)CO)C(=O)c2cccc(NC(=O)c3cnccn3)c2O[C@@H]1CN(C)C(=O)Nc1ccc2c(c1)OCO2,inactive
12,C[C@@H]1CN([C@H](C)CO)C(=O)c2cccc(NC(=O)C3CCOCC3)c2O[C@H]1CN(C)Cc1ccc(-c2ccccc2)cc1,inactive
13,C[C@@H]1CCCCO[C@H](CN(C)Cc2ccc(C(=O)Nc3ccccc3N)cc2)[C@@H](C)CN([C@H](C)CO)C(=O)c2cc(NC(=O)c3ccccc3)ccc2O1,inactive
14,C[C@H](CO)N1C[C@H](C)[C@@H](CN(C)C(=O)CN(C)C)Oc2ncc(-c3ccc(C(=O)N(C)C)cc3)cc2C1=O,inactive
15,S=c1ccss1,active
16,Cc1noc(C)c1NC(=O)N(C)C[C@H]1OCCCC[C@H](C)Oc2ccc(NC(=O)C3CCCCC3)cc2C(=O)N([C@@H](C)CO)C[C@H]1C,inactive
17,COc1cc([C@@H]2c3cc4c(cc3[C@@H](O[C@@H]3O[C@@H]5CO[C@@H](C)O[C@H]5[C@H](O)[C@H]3O)[C@H]3COC(=O)[C@H]23)OCO4)cc(OC)c1O,active
18,C[C@@H]1CN([C@@H](C)CO)C(=O)Cc2cc(NC(=O)CCC(F)(F)F)ccc2O[C@@H]1CN(C)C(=O)Nc1cccc2ccccc12,inactive
19,C=CCC[C@H](Cc1ccc(F)cc1)C(=O)O[C@@H](CNC(=O)[C@@H](CC=C)CC(=O)N[C@@H](CO)Cc1ccccc1)c1ccccc1,inactive
20,C[C@@H]1CN([C@@H](C)CO)C(=O)c2cc(NC(=O)CCN3CCOCC3)ccc2O[C@H]1CN(C)C(=O)NC1CCCCC1,inactive

row,Compound,growth inhibition call
1,Cc1noc(C)c1NC(=O)N(C)C[C@H]1Oc2ccc(NS(=O)(=O)c3ccccc3)cc2CC(=O)N([C@@H](C)CO)C[C@@H]1C,inactive
2,C[C@@H]1CN([C@@H](C)CO)C(=O)c2cccc(NC(=O)c3ccncc3)c2O[C@H]1CN(C)Cc1ccncc1,inactive
3,O=C(Cc1ccncc1)NCC[C@H]1CC[C@H](NC(=O)C2CCOCC2)[C@H](CO)O1,inactive
4,C[C@H]1COC(=O)[C@@H](CC(=O)OC(C)(C)C)CC=CC[C@@H](CC(=O)N[C@@H](CO)Cc2ccccc2)C(=O)N1,inactive
5,COC(=O)c1cncn1C,inactive
6,CCC(CC)C(=O)N[C@@H]1CC(=O)N(C)C1,inactive
7,C[C@H](CO)N1C[C@H](C)[C@H](CN(C)C(=O)c2ccccc2)OCCCC[C@H](C)Oc2ccc(NS(=O)(=O)c3ccccc3)cc2C1=O,inactive
8,NC(=S)c1cnc(-c2ccncc2)nc1N,inactive
9,COc1ccc(NC(=O)O[C@H]2[C@H](OC(=O)Nc3ccccc3-c3ccccc3)[C@@H](OC(=O)Nc3ccccc3-c3ccccc3)[C@@H](OC)O[C@@H]2COC(=O)NCCCCCC(=O)NO)cc1,inactive
10,COc1ccc(NC(=O)Nc2ccc3c(c2)C(=O)N([C@H](C)CO)C[C@H](C)[C@@H](CN(C)C(=O)Cc2ccccc2)OCCCC[C@@H](C)O3)cc1,inactive
11,CC(C)c1onc(-c2c(Cl)cccc2Cl)c1COc1ccc(/C=C/c2cccc(C(=O)O)c2)c(Cl)c1,active
12,CN(C)CC[C@H](CSc1ccccc1)Nc1ccc(S(=O)(=O)NC(=O)c2ccc(N3CCN(Cc4ccccc4-c4ccc(Cl)cc4)CC3)cc2)cc1[N+](=O)[O-],inactive
13,COc1ccc(S(=O)(=O)N(C)C[C@@H]2Oc3ccc(NC(=O)Cc4ccccc4)cc3CC(=O)N([C@H](C)CO)C[C@@H]2C)cc1,inactive
14,CC(C)NC(=O)N(C)C[C@H]1Oc2c(NC(=O)C3CCOCC3)cccc2C(=O)N([C@H](C)CO)C[C@H]1C,inactive
15,C[C@H]1CCCCO[C@@H](CN(C)Cc2ccncc2)[C@@H](C)CN([C@@H](C)CO)C(=O)c2cc(NS(C)(=O)=O)ccc2O1,inactive
16,O=C(C[C@H]1CC[C@@H](NC(=O)C2CC2)[C@H](CO)O1)NCCCN1CCOCC1,inactive
17,C[C@H]1CN([C@@H](C)CO)C(=O)c2ccccc2-c2ccccc2CO[C@@H]1CN(C)S(=O)(=O)c1cn(C)cn1,inactive
18,Cc1noc(C)c1NC(=O)Nc1ccc2c(c1)CC(=O)N([C@H](C)CO)C[C@H](C)[C@@H](CN(C)C(=O)Nc1cccc3ccccc13)O2,inactive
19,Cc1noc(C)c1S(=O)(=O)N(C)C[C@H]1Oc2ccc(NS(=O)(=O)c3ccc(Cl)cc3)cc2CC(=O)N([C@H](C)CO)C[C@@H]1C,inactive
20,Cc1ccc(S(=O)(=O)N(C)C[C@H]2Oc3ccc(NS(=O)(=O)c4c(C)noc4C)cc3C(=O)N([C@H](C)CO)C[C@@H]2C)cc1,inactive
